# Assay results: US20200164029A1 (ACCELERON PHARMA, published 2020)
# T1: human BMP-9 (human, UniProt Q9UK05 320-429)
# T1 construct: also called hBMP-9
# T1 sequence (looked up): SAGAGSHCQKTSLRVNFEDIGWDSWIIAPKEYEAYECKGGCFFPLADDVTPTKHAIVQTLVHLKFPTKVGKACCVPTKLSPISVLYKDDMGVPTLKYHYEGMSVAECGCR
# T2: human BMP-10 (human, UniProt O95393 317-424)
# T2 construct: also called hBMP-10
# T2 sequence (looked up): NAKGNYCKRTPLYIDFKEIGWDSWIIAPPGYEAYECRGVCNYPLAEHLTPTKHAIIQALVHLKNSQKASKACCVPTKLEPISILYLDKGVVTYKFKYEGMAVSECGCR
# T3: human BMP-2 (human, UniProt P12643 283-396)
# T3 construct: also called hBMP-2
# T3 sequence (looked up): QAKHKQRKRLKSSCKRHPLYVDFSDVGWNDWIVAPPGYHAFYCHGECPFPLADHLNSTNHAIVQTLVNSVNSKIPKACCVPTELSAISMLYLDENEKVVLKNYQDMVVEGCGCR
# T4: hBMP-2/7 (human, UniProt P12643 283-396; P18075 293-431)
# T4 construct: read as the BMP-2/BMP-7 heterodimer
# T4 sequence (looked up) 1: T3 sequence (looked up)
# T4 sequence (looked up) 2: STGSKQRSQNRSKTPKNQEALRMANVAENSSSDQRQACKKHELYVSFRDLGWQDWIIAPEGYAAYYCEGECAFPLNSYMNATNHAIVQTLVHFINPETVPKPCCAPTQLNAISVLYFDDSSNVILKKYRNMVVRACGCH
# T5: human BMP-7 (human, UniProt P18075 293-431)
# T5 construct: also called hBMP-7
# T5 sequence (looked up): T4 sequence (looked up) 2
# T6: human TGF-β2 (human, UniProt P61812 303-414)
# T6 construct: also called hTGF-β2
# T6 sequence (looked up): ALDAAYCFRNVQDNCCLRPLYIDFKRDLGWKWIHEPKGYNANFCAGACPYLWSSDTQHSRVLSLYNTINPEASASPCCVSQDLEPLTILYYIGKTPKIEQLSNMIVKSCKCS
# T7: human TGF-β3 (human, UniProt P10600 301-412)
# T7 construct: also called hTGF-β3
# T7 sequence (looked up): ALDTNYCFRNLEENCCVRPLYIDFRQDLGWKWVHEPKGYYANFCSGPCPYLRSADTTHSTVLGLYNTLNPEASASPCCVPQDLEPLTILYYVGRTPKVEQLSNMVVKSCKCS
# T8: human activin A (human, UniProt P08476 311-426)
# T8 construct: also called hActivin A
# T8 sequence (looked up): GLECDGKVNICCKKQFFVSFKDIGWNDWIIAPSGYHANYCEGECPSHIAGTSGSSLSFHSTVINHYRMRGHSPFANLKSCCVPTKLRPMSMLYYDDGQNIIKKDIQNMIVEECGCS
# T9: VEGF (human, UniProt P15692-4 27-191, limits assumed)
# T9 construct: also called vascular endothelial growth factor
# T9 sequence (looked up): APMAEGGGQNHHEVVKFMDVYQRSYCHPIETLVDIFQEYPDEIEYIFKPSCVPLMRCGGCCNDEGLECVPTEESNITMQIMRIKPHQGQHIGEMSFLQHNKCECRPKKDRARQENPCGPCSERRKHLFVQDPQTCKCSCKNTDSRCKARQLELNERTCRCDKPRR
# B1: hENG(26-586)-hFc (Fc fusion)
# chain: GAETVHCDLQPVGPERDEVTYTTSQVSKGCVAQAPNAILEVHVLFLEFPTGPSQLELTLQASKQNGTWPREVLLVLSVNSSVFLHLQALGIPLHLAYNSSLVTFQEPPGVNTTELPSFPKTQILEWAAERGPITSAAELNDPQSILLRLGQAQGSLSFCMLEASQDMGRTLEWRPRTPALVRGCHLEGVAGHKEAHILRVLPGHSAGPRTVTVKVELSCAPGDLDAVLILQGPPYVSWLIDANHNMQIWTTGEYSFKIFPEKNIRGFKLPDTPQGLLGEARMLNASIVASFVELPLASIVSLHASSCGGRLQTSPAPIQTTPPKDTCSPELLMSLIQTKCADDAMTLVLKKELVAHLKCTITGLTFWDPSCEAEDRGDKFVLRSAYSSCGMQVSASMISNEAVVNILSSSSPQRKKVHCLNMDSLSFQLGLYLSPHFLQASNTIEPGQQSFVQVRVSPSVSEFLLQLDSCHLDLGPEGGTVELIQGRAAKGNCVSLLSPSPEGDPRFSFLLHFYTVPIPKTGTLSCTVALRPKTGSQDQEVHRTVFMRLNIISPDLSGCTSKGTGGG[left out - human IgG1 Fc]
# notes: also called full-length construct; soluble endoglin (ENG) fusion protein
# B2: hENG(26-359)-hFc (Fc fusion)
# chain: ETVHCDLQPVGPERDEVTYTTSQVSKGCVAQAPNAILEVHVLFLEFPTGPSQLELTLQASKQNGTWPREVLLVLSVNSSVFLHLQALGIPLHLAYNSSLVTFQEPPGVNTTELPSFPKTQILEWAAERGPITSAAELNDPQSILLRLGQAQGSLSFCMLEASQDMGRTLEWRPRTPALVRGCHLEGVAGHKEAHILRVLPGHSAGPRTVTVKVELSCAPGDLDAVLILQGPPYVSWLIDANHNMQIWTTGEYSFKIFPEKNIRGFKLPDTPQGLLGEARMLNASIVASFVELPLASIVSLHASSCGGRLQTSPAPIQTTPPKDTCSPELLMSLITGGG[left out - human IgG1 Fc]
# B3: hENG(26-437)-hFc (Fc fusion)
# chain: GAETVHCDLQPVGPERDEVTYTTSQVSKGCVAQAPNAILEVHVLFLEFPTGPSQLELTLQASKQNGTWPREVLLVLSVNSSVFLHLQALGIPLHLAYNSSLVTFQEPPGVNTTELPSFPKTQILEWAAERGPITSAAELNDPQSILLRLGQAQGSLSFCMLEASQDMGRTLEWRPRTPALVRGCHLEGVAGHKEAHILRVLPGHSAGPRTVTVKVELSCAPGDLDAVLILQGPPYVSWLIDANHNMQIWTTGEYSFKIFPEKNIRGFKLPDTPQGLLGEARMLNASIVASFVELPLASIVSLHASSCGGRLQTSPAPIQTTPPKDTCSPELLMSLIQTKCADDAMTLVLKKELVAHLKCTITGLTFWDPSCEAEDRGDKFVLRSAYSSCGMQVSASMISNEAVVNILSSSSPQRTGGG[left out - human IgG1 Fc]
# notes: also called ENG(26-437)-Fc
# Experiments:
# human BMP-9 [1] = target: T1, human BMP-9; test: SPR screen at low ligand concentration
# human BMP-10 [2] = target: T2, human BMP-10; test: SPR screen at low ligand concentration
# human BMP-2 [3] = target: T3, human BMP-2; test: SPR (Biacore), captured construct, soluble ligand
# hBMP-2/7 [4] = target: T4, hBMP-2/7; test: SPR (Biacore), captured construct, soluble ligand
# human BMP-7 [5] = target: T5, human BMP-7; test: SPR (Biacore), captured construct, soluble ligand
# human TGF-β1 [6] = target: T10, human TGF-β1 (human, UniProt P01137 partial chain); test: SPR (Biacore), captured construct, soluble ligand
# T10 construct: also called hTGF-β1
# human TGF-β2 [7] = target: T6, human TGF-β2; test: SPR (Biacore), captured construct, soluble ligand
# human TGF-β3 [8] = target: T7, human TGF-β3; test: SPR (Biacore), captured construct, soluble ligand
# human activin A [9] = target: T8, human activin A; test: SPR (Biacore), captured construct, soluble ligand
# human BMP-10 [10] = target: T2, human BMP-10; test: SPR, captured hENG(26-586)-hFc, soluble BMP-10 0.01-1.25 nM, non-linear regression (FIG. 19)
# Source text: (§1) Thus, selective high-affinity binding of BMP-9 and BMP-10 is a previously unrecognized property of the ENG extracellular domain that is generalizable across species.
# human BMP-9 [11] = target: T1, human BMP-9; test: SPR, captured hENG(26-586)-hFc, soluble BMP-9 0.01-0.625 nM, non-linear regression (FIG. 18)
# Source text: as §1
# VEGF = target: T9, VEGF; test: SPR
# human BMP-2 [12] = target: T3, human BMP-2; test: SPR ligand panel
# hBMP-2/7 [13] = target: T4, hBMP-2/7; test: SPR ligand panel
# human BMP-7 [14] = target: T5, human BMP-7; test: SPR ligand panel
# human TGF-β1 [15] = target: T10, human TGF-β1; test: SPR ligand panel
# T10 sequence (P01137 279-390 limits assumed): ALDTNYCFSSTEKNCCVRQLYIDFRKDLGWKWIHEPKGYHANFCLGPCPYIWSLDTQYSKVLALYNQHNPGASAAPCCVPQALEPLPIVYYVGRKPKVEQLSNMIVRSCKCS
# human TGF-β2 [16] = target: T6, human TGF-β2; test: SPR ligand panel
# human TGF-β3 [17] = target: T7, human TGF-β3; test: SPR ligand panel
# human activin A [18] = target: T8, human activin A; test: SPR ligand panel
# human BMP-9 [19] = target: T1, human BMP-9; test: SPR, captured hENG-hFc, ligand at 100 nM; ++++ = KD < 1 nM
# human BMP-10 [20] = target: T2, human BMP-10; test: as above
# human BMP-9 [21] = target: T1, human BMP-9; test: SPR kinetics, HEK293-cell-derived protein
# human BMP-10 [22] = target: T2, human BMP-10; test: SPR kinetics, HEK293-cell-derived protein
binder,measurement,setting,value
B1,Kd,human BMP-9 [1],< 1 nM
same,Kd,human BMP-10 [2],< 1 nM
same,binding result,human BMP-2 [3],no binding (tested: 100 nM)
same,binding result,hBMP-2/7 [4],no binding (tested: 100 nM)
same,binding result,human BMP-7 [5],no binding (tested: 100 nM)
same,binding result,human TGF-β1 [6],no binding (tested: 100 nM)
same,binding result,human TGF-β2 [7],no binding (tested: 100 nM)
same,binding result,human TGF-β3 [8],no binding (tested: 100 nM)
same,binding result,human activin A [9],no binding (tested: 100 nM)
same,Kd,human BMP-10 [10],0.4 nM
same,Kd,human BMP-9 [11],0.029 nM
B2,binding result,VEGF,no binding
same,binding result,human BMP-2 [12],no binding (tested: 100 nM)
same,binding result,hBMP-2/7 [13],no binding (tested: 100 nM)
same,binding result,human BMP-7 [14],no binding (tested: 100 nM)
same,binding result,human TGF-β1 [15],no binding (tested: 100 nM)
same,binding result,human TGF-β2 [16],no binding (tested: 100 nM)
same,binding result,human TGF-β3 [17],no binding (tested: 50 nM)
same,binding result,human activin A [18],no binding (tested: 100 nM)
same,binding result,human BMP-9 [19],binds
same,binding result,human BMP-10 [20],binds
B3,binding result,human BMP-2 [12],no binding (tested: 100 nM)
same,binding result,hBMP-2/7 [13],no binding (tested: 100 nM)
same,binding result,human BMP-7 [14],no binding (tested: 100 nM)
same,binding result,human TGF-β1 [15],no binding (tested: 100 nM)
same,binding result,human TGF-β2 [16],no binding (tested: 100 nM)
same,binding result,human TGF-β3 [17],no binding (tested: 50 nM)
same,binding result,human activin A [18],no binding (tested: 100 nM)
same,Kd,human BMP-9 [21],0.019 nM
same,koff,human BMP-9 [21],0.0014 s⁻¹
same,Kd,human BMP-10 [22],0.13 nM
same,koff,human BMP-10 [22],0.0028 s⁻¹
